Measured values: PubChem BioAssay AID463173 (ICCB-Longwood Screening Facility, Harvard Medical School, 2010)
In all, about 52,000 compounds went through this assay and about 1,700 (3.3%) were called active. Rule as the data show it: active = survival mostly below about 52% (no sharp cut-off); inactive = mostly above about 56%. This is one part of the list.

These compounds were tested on Wild type (assay: growth inhibition of S. aureus wild type versus tarO mutant, primary screen, teichoic acid synthesis inhibitors, RN4220, OD600 (AID 463173)). Conditions: S. aureus RN4220 wild type/DeltatarO growth, OD600, 18 h, stronger effect = lower value, screened at 18.75 µg/mL (by protocol).
In the case of `COc1ccc(-c2cn3c(n2)sc2cc(C(=O)NCCc4ccccc4)ccc23)cc1`, the survival is reported as inactive: 106%.
For `COc1ccccc1/C=C/c1nc(C#N)c(NCc2ccccc2)o1`, the survival was inactive: 95%.
For `CCc1ccccc1N(CC)C(=O)c1cc2c(s1)-c1ccccc1SC2`, the survival was active: -1%.
For `Cc1cccc(CNC(=O)C2CCN(c3nn4cc(-c5ccc(F)cc5)nc4s3)CC2)c1`, the survival was inactive: 60%.
In the case of `COc1ccc(-n2ncc(C(=O)NCc3cccs3)c2C2CCN(C(=O)OC(C)(C)C)CC2)cc1`, the survival is reported as inactive: 71%.
`O=C(Cc1ccc(Cl)cc1)NC1CC(=O)N(c2ccc3c(c2)OCCO3)C1` (stereo not given) was tested, and the survival was inactive: 58%.
With `CC1CCN(C(=O)Cn2cc(SCC(=O)NCc3ccccc3)c3ccccc32)CC1` the survival was inactive: 86%.
`CCOc1ccc(C(c2c(O)cc(C)n(Cc3ccco3)c2=O)N2CCN(C)CC2)cc1` (stereo not given) was tested, and the survival was inactive: 66%.
For `Cc1cc(C)nc(Oc2ccc(Br)cc2Br)n1`, the survival was inactive: 117%.
For `CCOc1ccc(-c2cn3c(n2)sc2cc(C(=O)NC(C)C45CC6CC(CC(C6)C4)C5)ccc23)cc1` (stereo not given), the survival was inactive: 126%.
For `N#C/C(=C\Nc1cccc(C(F)(F)F)c1)C(=O)N1CCOCC1`, the survival was inactive: 111%.
`Cn1nnc2cc(C(=O)N3CCCCCC3)ccc21` was tested, and the survival was inactive: 112%.
`CCC(Sc1nnc(-c2ccc(F)cc2)c(-c2ccc(F)cc2)n1)C(=O)NC1CCCC1` (stereo not given) was tested, and the survival was inactive: 63%.
For `CCc1nnc(NC(=O)c2nc(SCc3cccc(C)c3)ncc2Cl)s1`, the survival was inactive: 56%.
In the case of `O=S(=O)(c1ccccc1)n1nc(-c2ccco2)nc1NCc1ccccc1`, the survival is reported as inactive: 84%.
With `Cc1cccc(-n2ncc3c(NCCOCCO)ncnc32)c1` the survival was inactive: 73%.
With `CC(Nc1oc(-c2ccc(COc3ccccc3)o2)nc1C#N)c1ccccc1` (stereo not given) the survival was inactive: 77%.
For `COc1cccc(N2CC(NC(=O)/C=C\c3ccccc3)CC2=O)c1` (stereo not given), the survival was inactive: 88%.
For `O=C(CSc1nc2c([nH]c3ccccc32)c(=O)n1-c1ccccc1F)Nc1cccc(Cl)c1`, the survival was inactive: 81%.
With `CCC(=O)N1CCc2cc(S(=O)(=O)CCC(=O)Nc3cc(Cl)ccc3OC)ccc21` the survival was inactive: 73%.
In the case of `O=C(CSc1nc2ccccc2c(=O)n1Cc1ccco1)Nc1ccccc1`, the survival is reported as inactive: 106%.
In the case of `COc1ccc(CNC(=O)C2CCN(S(=O)(=O)c3cccc(-c4noc(C)n4)c3)CC2)cc1`, the survival is reported as inactive: 76%.
In the case of `O=C(c1cc2sccc2n1Cc1ccccc1)N1CCCC1`, the survival is reported as inactive: 125%.
With `Cc1cccc(Cn2c(CN3CCC(C(=O)NC(C)C)CC3)cc3ccccc32)c1` the survival was inactive: 81%.
For `COc1ccc(C2C(C(=O)Nc3ccccc3)=C(C)Nc3nc(-c4ccc(Cl)cc4)nn32)cc1` (stereo not given), the survival was inactive: 111%.
`Cc1ccccc1CNCCCSc1nnnn1C` was tested, and the survival was inactive: 98%.
With `Cc1ccc(NC(=O)CSCc2cc(=O)c3ccccc3[nH]2)c(C)c1` the survival was inactive: 135%.
For `CCOc1ccc(CNC(=O)c2cc3c(=O)oc4ccc(C)cc4c3s2)cc1`, the survival was inactive: 91%.
With `COc1ccc(-c2cn3c(n2)sc2cc(C(=O)NCCCN4CCN(C)CC4)ccc23)cc1` the survival was inactive: 108%.
With `Cc1ccc(-n2c(=O)c3c(C)c(C(=O)N(C)C)sc3n(Cc3ccccc3C)c2=O)cc1C` the survival was inactive: 73%.
In the case of `COc1ccc(Cn2c(CO)cnc2SCc2ccccc2)cc1`, the survival is reported as inactive: 69%.
In the case of `O=C(COCc1cc(-c2ccc(F)cc2)on1)Nc1cccc(C(F)(F)F)c1`, the survival is reported as inactive: 77%.
In the case of `CCCOc1ccc(C2C(=O)N(C3CCCCC3)CC(=O)N2C2CCCCC2)cc1OC` (stereo not given), the survival is reported as inactive: 77%.
With `CCC(C)Nc1nc(OC(C(F)(F)F)C(F)(F)F)nc(N(CC)CC)n1` (stereo not given) the survival was inactive: 101%.
With `Cc1cccc(Nc2nc(-c3ccccc3)nc3ccccc23)c1` the survival was active: -1%.
For `O=C(O)C(=Cc1ccc(-c2cccc(C(F)(F)F)c2)o1)C(=O)O`, the survival was inactive: 107%.
With `Cc1cccc(OC(=O)CSc2nnc(-c3cccs3)o2)c1C` the survival was inactive: 82%.
For `Cc1ccc(-n2ncc(C(=O)N3CCN(c4ccccc4F)CC3)c2C2CCN(C(=O)OC(C)(C)C)CC2)cc1C`, the survival was inactive: 68%.
With `CSc1ncc(Cl)c(C(=O)Nc2c(C(=O)c3ccc(Cl)cc3)oc3ccccc23)n1` the survival was inactive: 92%.
`CCOC(=O)c1c(S(=O)(=O)N2CCCC(C(=O)Nc3cccc(CC)c3)C2)c(C)n(CC)c1C` (stereo not given) was tested, and the survival was inactive: 135%.
For `CCOC(=O)c1c(C)[nH]c(C)c1S(=O)(=O)NCC(=O)Nc1cccc(Cl)c1`, the survival was inactive: 72%.
For `Cc1c(NC(=O)Cc2ccc(Cl)cc2)cccc1-c1nc2cccnc2s1`, the survival was inactive: 117%.
With `CCOc1ccc(CNC(=O)c2ccc(NC(=O)N3CCCCc4ccccc43)cc2)cc1` the survival was inactive: 113%.
`Cc1cccc(CNC(=O)Cn2nc(C)c3nn(-c4ccc(Cl)cc4)c(C)c3c2=O)c1` was tested, and the survival was inactive: 47%.
`Cc1c(CNC2CCCCCC2)c(C(=O)O)c(C)n1Cc1cccc(Cl)c1` was tested, and the survival was inactive: 142%.
For `Cc1cc(C)cc(NC(=O)NCc2c(-n3cccc3)sc3c2CCCC3)c1`, the survival was inactive: 99%.
With `O=C(CSc1nc(Nc2ccccc2)c2ccccc2n1)c1ccc(Cl)cc1` the survival was inactive: 82%.
`Cc1ccccc1Nc1c(-c2c[nH]c3ccccc23)nc2ccc(Cl)cn12` was tested, and the survival was inactive: 82%.
With `Clc1cccc(CNCCCSc2nnnn2-c2ccccc2)c1` the survival was inactive: 84%.
For `COC(=O)c1scc(-c2ccc(C)cc2)c1S(=O)(=O)Nc1cc(C)c(Cl)cc1OC`, the survival was inactive: 128%.
With `CC(=O)N1CCN(c2csc3ccc(Cl)cc3c2=O)CC1` the survival was inactive: 66%.
In the case of `Cc1ccc(NS(=O)(=O)c2ccc3c(c2)n(C)c(=O)n3C)c(C)c1`, the survival is reported as inactive: 67%.
With `CCCCOC(=O)c1ccc(NC(=O)c2ccc3c(c2)CCN3S(C)(=O)=O)cc1` the survival was inactive: 111%.
`Cc1cccc(C(c2sc3nc(-c4ccco4)nn3c2O)N2CCOCC2)c1` (stereo not given) was tested, and the survival was inactive: 75%.
In the case of `Cc1cc(C)c(C#N)c(N2CCC(C(N)=O)CC2)n1`, the survival is reported as inactive: 93%.
For `Cc1cccc(N2CCN(C(=O)CCS(=O)(=O)c3ccc4c(c3)CC(=O)N4C)CC2C)c1` (stereo not given), the survival was active: -4%.
With `Cc1ccccc1S(=O)Cc1ccc(C(=O)NCc2ccccc2Cl)o1` (stereo not given) the survival was inactive: 71%.
In the case of `O=C(Cn1cc(C(=O)c2ccco2)c2ccccc21)Nc1ccccc1C(F)(F)F`, the survival is reported as inactive: 98%.
For `COc1ccc(-c2csc3ncnc(Nc4ccccc4)c23)cc1`, the survival was inactive: 94%.
In the case of `Cc1ccc(CSC2=NC(C)(C)Nc3ccccc32)c(C)c1`, the survival is reported as inactive: 120%.
With `Fc1cccc(CN2CCc3nc(Nc4ccc5c(c4)OCCO5)ncc3C2)c1F` the survival was inactive: 81%.
For `O=C(NCCc1cccs1)c1ccc(Cn2c(SCc3cccc(F)c3)nc3cccnc32)cc1`, the survival was inactive: 91%.
In the case of `COc1ccc(NC(=O)Cn2cc(C(=O)c3ccc(C)c(C)c3)c(=O)c3cc(OC)ccc32)cc1`, the survival is reported as inactive: 78%.
`CCOc1ccccc1NC(=O)Cn1c(=O)oc2ccccc21` was tested, and the survival was inactive: 75%.
With `COc1ccc(-c2noc(N3CCC(C(=O)N4CCN(c5cccc(OC)c5)CC4)CC3)n2)cc1` the survival was inactive: 69%.
`CCOC(=O)c1c(-c2ccccc2)oc2ccc(OCc3ccccc3Br)cc12` was tested, and the survival was inactive: 50%.
For `CCOc1ccc2c(c1)c(=O)c(C(=O)c1ccc(CC)cc1)cn2CC(=O)Nc1ccc2c(c1)OCCO2`, the survival was inactive: 78%.
For `COc1cc(C2C=C(C(=O)O)Nc3ncnn32)ccc1O` (stereo not given), the survival was inactive: 88%.
In the case of `COc1ccc(Cl)cc1NC(=O)Cn1c(=O)n2nc(-c3ccccc3)nc2c2ccccc21`, the survival is reported as inactive: 74%.
With `O=C(CSCCO)N1CCc2ccccc21` the survival was inactive: 118%.
For `COc1cccc(NC(=O)Cn2c(=O)n(CCC(=O)NCc3ccccc3OC)c(=O)c3ccccc32)c1`, the survival was inactive: 82%.
For `COc1ccc(C)c2sc(N(Cc3cccnc3)C(=O)c3cccs3)nc12`, the survival was inactive: 63%.
For `Cc1ccc(NC(=O)Cn2cc3c(n2)CCCC3)cc1Cl`, the survival was inactive: 97%.
For `CCN1CCc2c(sc(-n3cccc3)c2C(C)NC(=O)Nc2ccc(C(=O)OC)cc2)C1` (stereo not given), the survival was inactive: 87%.
`CCCCCCN1C(=O)c2ccc(Br)cc2C1=O` was tested, and the survival was inactive: 108%.
`COc1ccc(-c2csc(-c3c(N)c(C(=O)c4ccc(OC)c(OC)c4)n4ccccc34)n2)cc1` was tested, and the survival was inactive: 100%.
For `O=C(Nc1cccc(F)c1)c1cnc2sc(N3CCCC3)nn2c1=O`, the survival was inactive: 74%.
For `COc1ccc(CNS(=O)(=O)c2ccc(-c3cc(C(F)(F)F)on3)s2)cc1OC`, the survival was inactive: 133%.
`COc1ccc(CNC(=O)c2nn(C)c3c2CSc2ccccc2-3)cc1` was tested, and the survival was inactive: 88%.
For `Cc1ccc(NC(=O)Cn2c(=O)n(Cc3ccccc3)c(=O)c3c(C)c(C(=O)N(C)C)sc32)c(C)c1`, the survival was inactive: 77%.
In the case of `COc1ccc(NC(=O)c2ccco2)cc1NC(=O)c1ccccc1[N+](=O)[O-]`, the survival is reported as inactive: 64%.
With `CCOC(=O)c1ccc(N2C(=O)c3n[nH]c(-c4ccco4)c3C2c2ccccc2OC)cc1` (stereo not given) the survival was inactive: 46%.
For `COc1ccc(N(C)S(=O)(=O)c2ccc3c(c2)CCN3C(=O)CCC(=O)O)cc1`, the survival was inactive: 61%.
For `CCc1cccc(C)c1Nc1nn2c(=O)c3ccccc3nc2s1`, the survival was inactive: 71%.
`Cc1ccccc1C(=O)NC1CCN(Cc2nnnn2Cc2ccccc2)CC1` was tested, and the survival was inactive: 96%.
For `CCN(CC)S(=O)(=O)c1ccc(-n2cnnn2)c(C)c1`, the survival was inactive: 100%.
`Cc1ccc(CNC(=O)c2ccc3c(c2)c(C)c(C)n3Cc2ccc(Cl)cc2)o1` was tested, and the survival was inactive: 84%.
With `CC(C)Nc1nc(Cl)nc(NCCO)n1` the survival was inactive: 109%.
`COc1cc(-c2cc(OC)c3c(C)oc(C)c3c(=O)c2)ccc1OC(=O)c1cccc(C)c1` was tested, and the survival was inactive: 78%.
In the case of `Cc1nn(S(=O)(=O)c2ccc(F)cc2)c(C)c1S(=O)(=O)N1CCCCCC1`, the survival is reported as inactive: 57%.
